{"source": "PubChem BioAssay AID686979", "about": "(National Center for Advancing Translational Sciences (NCATS), 2013)", "note": "“And” between values parts separate entries of the source, which are not always exact repeats. Identical values can stand only once. Screen size: about 420,000 compounds; about 50,000 (12%) were called active. Inconclusive results, whose numbers are uncertain, are shown with a selection of clear calls. Calls come from the whole dose curve; as a rule, active = well fitted inhibition curve with a large enough effect; inconclusive = small, poorly fitted or top-dose-only effect; inactive = flat fitted curve, though single readings scatter. Potencies of inconclusive entries are doubtful fits and often do not repeat. % is set by controls: 0 for no effect and ±100 for the full control effect; potency is the fitted concentration of half-maximal effect; tags give direction and shape of the fitted curve."}
{"test": "qHTS for Inhibitors of human tyrosyl-DNA phosphodiesterase 1 (TDP1): qHTS in cells in presence of CPT; note: nearly all actives have a fitted effect of over 55% in size", "details": "chicken DT40 Tdp1-/-;hTDP1 cells + 20 nM CPT, ATP luminescence, 48 h; activity change, negative = growth inhibition: at 46.2 µM (top of the series) unless noted", "summary_of_the_method": "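Cell growth measured by CellTiter-Glo luminescence after a minimum 48 h, 37 C compound exposure with 20 nM CPT in Tdp1-knockout DT40 cells stably expressing hTDP1, seeded 400/well; qHTS titration format.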"}
{"smiles": "COC(=O)C1CN(C(=O)COc2ccc(C)c(C)c2)c2ccccc2O1", "note": "(stereo not drawn)", "activity change, negative = growth inhibition": "inactive: 3.14%"}
{"smiles": "O=[N+]([O-])c1ccc(S(=O)(=O)NCCN2CCOCC2)cc1", "activity change, negative = growth inhibition": "inactive: -1.61%"}
{"smiles": "Cc1ccc2oc(=O)n(Cc3ccc(F)cc3)c2c1", "activity change, negative = growth inhibition": "inactive: -4.39%"}
{"smiles": "COc1cc(OC)cc(C2=Cc3ccc(OC)cc3C(CC(C)=O)N2c2ccc(C#CCCO)cc2)c1", "note": "(stereo not drawn)", "Potency": "inconclusive: 29.1 µM [inhibitor, single point]"}
{"smiles": "COC(=O)c1ccc(CSc2nnc(NC(=O)C3CC(=O)N(c4ccc5c(c4)OCCO5)C3)s2)cc1", "note": "(stereo not drawn)", "Potency": "active: 23.1 µM"}
{"smiles": "CCn1c(=O)c2sccc2n2c(CCC(=O)NCc3ccc(Cl)cc3)nnc12", "Potency": "inconclusive: 29.1 µM [inhibitor, single point]"}
{"smiles": "CCn1c(O)c(N=Nc2ccc3ccccc3n2)c2ccccc21", "Potency": "inconclusive: 29.1 µM [inhibitor, single point]"}
{"smiles": "CCCCN(C)c1c(C)nc2ccc(C(=O)NCc3ccc4c(c3)OCO4)cn12", "Potency": "inconclusive: 25.9 µM [inhibitor, single point]"}
{"smiles": "COc1cccc(-c2noc(CCCC(=O)N3CCOCC3)n2)c1", "activity change, negative = growth inhibition": "inactive: -1.74%"}
{"smiles": "CC(=O)Nc1ccc(-c2c(C)cc3oc(=O)cc(-c4ccccc4)c3c2C)cc1", "activity change, negative = growth inhibition": "inactive: -8.05%"}
{"smiles": "CCCOc1ccc(C2C(C(=O)c3ccc(C)o3)=C(O)C(=O)N2Cc2ccco2)cc1OCC", "note": "(stereo not drawn)", "Potency": "inconclusive: 29.1 µM [inhibitor, single point]"}
{"smiles": "O=C(Nc1cccc([N+](=O)[O-])c1)Nc1cnccn1", "activity change, negative = growth inhibition": "inactive: 0.66%"}
{"smiles": "Cc1ccc(C)c(OCc2nnc(NC(=O)c3ccc4c(c3)OCO4)s2)c1", "Potency": "inconclusive: 18.4 µM [inhibitor, single point]"}
{"smiles": "CC1(C(=O)NCc2ccccc2)CCC(=O)N1CCOc1ccccc1", "note": "(stereo not drawn)", "activity change, negative = growth inhibition": "inactive: -9.85%"}
{"smiles": "COc1ccc(S(=O)(=O)N2CCC(C(=O)N[C@@H](C)C(=O)NCc3ccccn3)CC2)cc1", "activity change, negative = growth inhibition": "inactive: -3.4%"}
{"smiles": "Cc1cccc(OCC(O)CN2CCc3ccccc3C2)c1", "note": "(stereo not drawn)", "Potency": "inconclusive: 3.26 µM [inhibitor, single point]"}
{"smiles": "COc1ccc(S(=O)(=O)N2Cc3ccccc3CC2C(=O)Nc2ccc3c(c2)OCO3)cc1", "note": "(stereo not drawn)", "activity change, negative = growth inhibition": "inactive: -18.3%"}
{"smiles": "CCOc1cc(CNCCO)cc(Br)c1OCc1ccc(Cl)cc1Cl", "Potency": "active: 16.4 µM"}
{"smiles": "O=C(Nc1cccc(-c2cn3c(n2)SCC3)c1)c1ccc(Br)o1", "Potency": "inconclusive: 29.1 µM [inhibitor, single point]"}
{"smiles": "Cc1cccc(-n2ncc3c2CCCC3NC(=O)CCN2CCCCO2)c1C", "note": "(stereo not drawn)", "Potency": "inconclusive: 18.4 µM [inhibitor, single point]"}
{"smiles": "Cc1ccc(NC(=O)Cn2nc(C(=O)O)c3ccccc3c2=O)c([N+](=O)[O-])c1", "activity change, negative = growth inhibition": "inactive: -11.5%"}
{"smiles": "CCOC(=O)C1CCN(C(=O)Cn2ncc3c4ccccc4n(C)c3c2=O)CC1", "Potency": "inconclusive: 23.1 µM [inhibitor, single point]"}
{"smiles": "COc1ccc(CNc2cc(-c3cccnc3)ncn2)c(OC)c1", "Potency": "inconclusive: 18.4 µM [inhibitor, single point]"}
{"smiles": "CN(CCc1ccccc1)C(CCc1ccccc1)C(=O)Nc1ccc2c(c1)OCCO2", "note": "(stereo not drawn)", "Potency": "inconclusive: 29.1 µM [inhibitor, single point]"}
{"smiles": "C=CCN(CC=C)CC(O)Cn1c2ccccc2c2ccccc21", "note": "(stereo not drawn)", "Potency": "inconclusive: 18.4 µM [inhibitor, single point]"}
{"smiles": "Cc1nn(C(C)C(=O)NCCN2CCCCCC2)c(=O)c2nn(-c3ccccc3)c(C)c12", "note": "(stereo not drawn)", "activity change, negative = growth inhibition": "inactive: -4.59%"}
{"smiles": "COC(=O)c1ccccc1NC(=O)NC1CCC(C)CC1", "note": "(stereo not drawn)", "activity change, negative = growth inhibition": "inactive: -4.26%"}
{"smiles": "CC1CN(C(=O)Cc2ccc(-c3ccccc3)cc2)CC(C)O1", "note": "(stereo not drawn)", "Potency": "inconclusive: 16.4 µM [inhibitor, partial curve]"}
{"smiles": "CCCCN1CCc2c(c3ccccc3n2Cc2ccccc2)C1", "Potency": "active: 16.4 µM"}
{"smiles": "CNc1nc(=S)[nH]c2ccccc12", "activity change, negative = growth inhibition": "inactive: 8.96%"}
{"smiles": "COc1cc(OC)cc(C(=O)NCC(=O)OCc2cc(=O)oc3cc(OC)ccc23)c1", "activity change, negative = growth inhibition": "inactive: 11.4%"}
{"smiles": "Cc1cccc(NS(=O)(=O)c2nnc(NC(=O)c3cccc(C)c3)s2)c1", "activity change, negative = growth inhibition": "inconclusive: -30.2% [inhibitor]"}
{"smiles": "Cc1ccc(-n2c(SCC(=O)Nc3ccc4c(c3)OCCO4)nc3c([nH]c4ccccc43)c2=O)cc1", "Potency": "inconclusive: 29.1 µM [inhibitor, single point]"}
{"smiles": "COC(=O)c1sc2ccccc2c1NC(=O)c1ccc(S(=O)(=O)N2CCCCC2C)cc1", "note": "(stereo not drawn)", "Potency": "inconclusive: 25.9 µM [inhibitor, single point]"}
{"smiles": "CCCCCC(=O)O/N=C(\\C)c1ccn(S(=O)(=O)c2ccccc2)c1", "Potency": "active: 14.6 µM"}
{"smiles": "O=C(/C=C/c1cccc([N+](=O)[O-])c1)N1CCN(Cc2ccccc2)CC1", "Potency": "inconclusive: 23.1 µM [inhibitor, single point]"}
{"smiles": "CN(C(=O)CN1C(=O)C2C3CC(C(Br)C3Br)C2C1=O)C1CCCCC1", "note": "(stereo not drawn)", "activity change, negative = growth inhibition": "inactive: 4.62%"}
{"smiles": "Cc1csc2nc(COC(=O)c3ccc(NC(=O)C(C)C)cc3)cc(=O)n12", "Potency": "active: 18.4 µM"}
{"smiles": "Cc1ccc(C)c2[nH]c(=O)c(CN(Cc3ccc4c(c3)OCO4)Cc3nnnn3Cc3ccco3)cc12", "Potency": "inconclusive: 23.1 µM [inhibitor, single point]"}
{"smiles": "CCCCNC(=O)Cn1cnc2sc(C)c(S(=O)(=O)N3CCN(c4ccccc4OC)CC3)c2c1=O", "Potency": "inactive and inconclusive: 29.1 µM [inhibitor, single point]"}
{"smiles": "COc1cccc(/C=N/NC(=O)C(=O)NCc2cccnc2)c1OC", "activity change, negative = growth inhibition": "inactive: 17%"}
{"smiles": "COc1ccc(-c2oc(/N=C/N3CCCC3)c(C#N)c2-c2ccc(OC)cc2)cc1", "Potency": "inconclusive: 16.4 µM [inhibitor, partial curve, poor fit]"}
{"smiles": "Cc1cc(C)n(-c2cc(C(=O)O)cc(C(=O)O)c2)n1", "activity change, negative = growth inhibition": "inactive: -2.95%"}
{"smiles": "CC(C)Nc1nc(-c2cccnc2)nc(-c2ccccc2)c1C#N", "activity change, negative = growth inhibition": "inactive: -9.96%"}
{"smiles": "Cc1ccc(OCC(=O)Nc2sc3c(c2C(N)=O)CCCC3)c(C(C)(C)C)c1", "Potency": "inconclusive: 20.6 µM [inhibitor, single point]"}
{"smiles": "O=[N+]([O-])c1cccc(-c2ccc(/C=N/NC(=S)NCc3ccco3)o2)c1", "Potency": "active: 23.1 µM"}
{"smiles": "Cc1c(C)[n+](=O)c(C)c(C)n1[O-]", "activity change, negative = growth inhibition": "inactive: -3.06%"}
{"smiles": "CC1=CCC(COC(=O)Nc2ccccc2)CC1", "note": "(stereo not drawn)", "Potency": "inconclusive: 29.1 µM [inhibitor, single point]"}
